These are literature values, as cited in PMC6327852 (Journal of cellular physiology, 2016).

In this data set the test system is GRP78. To be noted: reduced from >24 h; ref Booth et al., 2012; cited from earlier work.

Turning to `NCC(=O)Nc1ccc(-n2nc(C(F)(F)F)cc2-c2ccc3c(ccc4ccccc43)c2)cc1` [AR-12], the “GRP78 protein half-life after treatment” value is given as “approximately 10 h”.
